In article PMC11747885, “Potent inhibitors of the human RNA ligase Rlig1 highlights its role in RNA integrity maintenance under oxidative cellular stress” (Chemical Science, 2025):
Where “and” joins values, the source holds several entries; their conditions need not be identical. Equal entries are not always repeated.

System: HEK293 cells
Experiment: Cell viability assay of HEK293 cells treated with inhibitors (CellTiter-Glo)

## Nc1nccc(Nc2ccc(NC(=O)c3ccc(Nc4ccnc5ccccc45)cc3)cc2)n1 [Compound 26]
HEK293, 24 h, up to 30 μM
  cytotoxicity (in words): moderate cytotoxicity
HEK293, 24 h compound, highest concentration 30 μM, n = 3
  EC50: 30.5 µM
HEK293 cell viability, fit per plate (3 plates, 4 technical replicates each), highest tested concentration 30 µM
  IC50 (Figure 3D: EC50 values for plot; log(inhibitor) vs. response -- Variable slope (four parameters)): 28.7087 µM and 33.416 µM and 29.6362 µM
HEK293 cell viability, fit per plate (3 plates, 4 technical replicates each), log of [µM]
  LogIC50 (log(inhibitor) vs. response -- Variable slope (four parameters)): 1.458 and 1.524 and 1.472
